Results published in PMC8602290, “G3BP1 inhibits Cul3^SPOP to amplify AR signaling and promote prostate cancer” (Nature Communications, 2021).

Biological target: T1, Speckle-type POZ protein (SPOP), endogenous in 22Rv1 cells (human (endogenous in 22Rv1), UniProt O43791 1-374)
T1 construct: SPOP, endogenous protein of human 22Rv1 prostate cancer cells; also called endogenous SPOP; source: endogenous, 22Rv1 lysate or cells
Experiment: proximity ligation; 22Rv1 cells transfected with FLAG-G3BP1 constructs; Duolink II kit, antibodies against FLAG-M2 and SPOP (endogenous); percentage of cells with signal
Conditions: partners not purified

T1 sequence (O43791 whole entry): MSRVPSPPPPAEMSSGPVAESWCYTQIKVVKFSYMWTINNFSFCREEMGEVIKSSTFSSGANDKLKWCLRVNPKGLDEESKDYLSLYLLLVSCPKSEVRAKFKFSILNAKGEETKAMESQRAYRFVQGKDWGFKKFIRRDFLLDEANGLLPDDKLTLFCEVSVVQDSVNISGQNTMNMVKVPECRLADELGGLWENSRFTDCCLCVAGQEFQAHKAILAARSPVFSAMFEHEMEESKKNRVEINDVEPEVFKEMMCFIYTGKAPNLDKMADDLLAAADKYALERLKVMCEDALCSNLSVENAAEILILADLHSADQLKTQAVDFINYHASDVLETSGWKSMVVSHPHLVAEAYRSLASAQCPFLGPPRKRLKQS

percentage of cells with PLA positive signal: 75%
B1: FLAG-G3BP1^NTF2 (22Rv1) (domain or fragment)
chain: not shown
notes: also called FLAG-NTF2; NTF2 ([…] aa); source: 22Rv1, transfected, in cells or lysate
